Assay results reported in the supplement of paper PMC3724861.
Some of the results follow.

What follows are sequences tested on T1, Caupolican (Caup) homeodomain DNA-binding domain (assay: PBM E-score (8-mer, recovered from the published 9-mer minima) (E-score (dimensionless, -0.5 to 0.5)); Drosophila protein; higher = stronger relative binding preference, active = 0.31 or more).
T1 sequence: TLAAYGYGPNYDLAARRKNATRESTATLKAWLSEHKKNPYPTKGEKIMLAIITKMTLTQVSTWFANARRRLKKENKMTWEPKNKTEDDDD
Outline: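 Caup's homeodomain DNA-binding domain (residues 214-303) was produced by in vitro transcription and translation and applied at 100 nM to custom-designed protein binding microarrays. Each value is an enrichment score giving relative binding preference for a short DNA word; higher means stronger. Published 9-mer scores were the minimum of their two constituent 8-mer scores, and the 8-mer values were recovered from those minima. A cutoff of 0.31 marks candidate binding sequences.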

PBM E-score, ≥ 0.177:
TACCACAA

PBM E-score, ≥ -0.0662:
TAGGGGAA

PBM E-score, ≥ -0.0577:
CGGGTCTA

PBM E-score, ≥ 0.219:
TCCTAACA

PBM E-score, ≥ 0.0657:
AGCTAAAG

PBM E-score, ≥ 0.00479:
ACAGCCGT

PBM E-score, active:
TCAGTACA 0.313
ATGTCAAA 0.359
ACATGTCA 0.461
ATGATGTA ≥ 0.383

PBM E-score, ≥ 0.15:
AACGAGAA

PBM E-score, ≥ 0.148:
AAAGAATA

PBM E-score, ≥ 0.0415:
AGAAGGAT

PBM E-score, ≥ -0.0542:
ACTCCGCT

PBM E-score, inactive:
CGGATGCA -0.111
GAATTTGC 0.0319
GGTGAGAC -0.065
AGTCTTCC -0.082
CCCCGTCA -0.234
ATTCCAGC -0.0544
ACCCCTAG -0.125
ACGTATAA 0.0902
ATGTTCCC 0.282
AACTGCAA -0.0126
CTCTGACA 0.181
AATACCGT 0.05
GCCGTGCC -0.209
CATAAAGA 0.11
CTACGAAA -0.0135
AGCACCAC -0.0959
CCCGGACC -0.198
CCGCGGAA -0.189
CACCGTGC -0.00842
GAATCGGA -0.0551
CCCGACCG -0.259
CTAGTCCA 0.0476
CGGTCTCC -0.28
ACGATACG 0.0862
CGAAGGGA -0.0996
GGCAACGA 0.04
CAGACACC 0.0639
CAACCCCA -0.102
CAAAGTGA -0.0286
AGTTTGAT 0.0981
ACACGCAA 0.283
GCAACCCA -0.00131
GCCCCGGA -0.272
GCTGCAGA -0.0221
GACACTTA 0.0943
AAACACTT 0.153
AACGCGAG -0.0453
TAGGATCA 0.0338
AACTGCAG -0.0155
GTTATTAA 0.164
AGTGATCA 0.157
AGACGTAT 0.0977
CCAAACCA -0.047
GGCGCACC -0.318
AGAACTCA 0.0135
ACCCGTAC 0.0668
ATAAAGGC -0.111
AATTAGAA -0.00471
AGGCGGGC -0.272
ACTGACCC -0.14
AGTAGTGG -0.00423
CAAATACC 0.0217
CCGCTGCC -0.169
ACGACGCC -0.108
ACTACGTG 0.0316
AAACCTTA 0.0279
AAACTATA 0.123
CATCAAAG 0.0355
GGCTGCGA -0.238
CAGTCCGC -0.134
CACCGTGG -0.0464
ATGGACGG -0.0288
ACTGGGAT 0.0195
CGGCAGGC -0.213
AGGCAAGG -0.146
ACATATAC 0.291
CGATGGAG -0.139
CGTAATTA 0.157
CAGATCAC 0.102
CGTACGAC 0.14
GGAGTCGA -0.094
GTGATTCA 0.0823
GGTAGTTA 0.08
ACGCTGGG -0.281
CGGCGGGC -0.257
GGAATATA 0.0513
CTACAGAG 0.084
AGTAACAA 0.266
CGCCTACA 0.0793
CGCCTAGC -0.251
GCACGCAA -0.112
ATATTTAC 0.232
GAGTCATA 0.0277
GGAACGGA -0.154
AAAAGTGA 0.0661
ATGGTGGC -0.103
CCGAGCTA -0.131
CACGAGGA -0.0584
CATGCAAG 0.0746
TATGTAGA 0.226
AGATGAGC -0.0506
TAGAGACA 0.0795
GGCATTAC 0.041
AGCAAATG 0.0599
GAGATCTC -0.102
GGCTTTAA -0.0745
CAATCGGG -0.0717
CTGCGTCC -0.206
CGAATCTC 0.0162
AGCCAAAC -0.0421
ATACTAAA 0.132
ATCGTGAG -0.093
CGCGTCAA -0.0559
GCCATTAA -0.0131
CCGAATCA -0.0338
GCATGCAC 0.0682
ACAGTCCC -0.111
CCTTGAAG -0.0924
ACCCCATA -0.073
GACACGAA 0.224
GGGTCGTA -0.0762
CATGGGTC 0.00071
AGCTCTAG -0.0297
GAATCAAC 0.0847
TACGTGCA 0.0134
CACATCAA 0.0655
GACTCCCA -0.0661
GCGTTATA -0.0159
CTTTTCCA -0.0614
AGTACTCG 0.132
CGCCAGGC -0.273
ATCCCCCC -0.367
CGTATATC 0.00102
ACCGCAAC 0.0145
CGTGCCTA -0.188
CTCAGGCC -0.222
TCAATCAA 0.127
AGGTTAGA -0.0257
AGTTCACA 0.0193
ACTATCAT 0.122
ATGGAGTG 0.0154
AAGTGAAG -0.0115
AAACGGCT -0.15
AGTCGATC -0.0276
AGCAGGCA -0.125
CTTCAGCC -0.141
ACGTAGCG -0.0384
ACGACAAA 0.194
AAAACACC 0.125
CACTGAAG -0.0338
CGGGCCTC -0.244
CGAGTTAA 0.0671
AAGAGTCT -0.0694
CAAGGTCG 0.0326
GCTGTCTA -0.0187
CGATTCAG -0.0377
CCATTAGC -0.00206
AATTGGTA 0.129
GTCCTCTA -0.0553
AGACTTCA 0.0153
AATAAGAA 0.00861
TCCCGACA 0.16
CTTCGTGC -0.0316
AGGGCGTC -0.192
CAACGGAC -0.0225
ATGGGCCC -0.267
CGCTTGCA 0.00443
CGCCGCAG -0.303
CTCCCCTA -0.147
ATTTTACA 0.305
ACGCCAGC -0.231
TAGCCTCA -0.0217
GGCGACTA -0.0102
CTCAATCC -0.0271
CATCCTGG -0.0229
TCTAGTAA 0.152
ATTACCGG 0.0125
CGGCTCGA -0.0839
ATGGATGG -0.00742
ATTACTAC 0.293
TCGCGCCA -0.219
TCATTAGA 0.0193
AGACCTGG -0.161
AGTTTCGA -0.0587
CCATTGGC -0.124
ATTAGCAG 0.0319
CGTAGGAA 0.0374
AAGTTATA 0.163
GGCGTATA -0.0296
ACCGAACC -0.0895
ATGCTAGA 0.0809
GATTAACA 0.292
ACAAAGCG -0.00979
GCTAGCGA -0.16
ACGGAGAC -0.0291
AACTTTCC -0.108
TACCTACA 0.278
ACCCGAGT -0.0433
ATAAGAAA 0.133
ACTAACCG 0.0241
TAGTCGGA -0.014
CTTACGTA 0.0887
AACGAAAA 0.0909
ATCGTAGA 0.0792
TTATCGAA 0.0475
CTAACTCC -0.159
CTAACCGC -0.0969
CCGGAGAG -0.159
GATGATCC -0.0978
CTATAGAA 0.0358
AGGTGGTG 0.0492
ACGGACCG -0.0951
GAACTTGA -0.0607
AAAAGAAG -0.0156
GGTATTTA 0.0587
ATGCTTTC 0.0403
AGCACATA 0.0614
GTTGTCGA 0.229
GATGCACA -0.00178

PBM E-score, ≥ 0.249:
ATCCTGTA
